The supplement of paper PMC7826260
This is one part of the list. The data describe in vitro nicking of single-stranded DNA by Rep domains (1 h at 37 °C, 3 µM enzyme); the outer parts of the 90-letter strands are left off. Values are log2 of uncut reads against the no-enzyme pool; more negative means more cut, near 0 not cut, and no call is made. Shares of all reads are compared; values above 0 arise when much of the pool is cut.

Tests used:
Test in all cases: uncleaved DNA left, log2 of reads against the no-enzyme library (log2 ratio); higher = less cleavage (more negative = more Rep cleavage of the k-mer); sequences stand for … in CTCGTCCG…ACCGGAGA
[1] = test system: T1, Rep nickase domain of Muscovy duck circovirus
T1 sequence (residues 1-111, tag not shown): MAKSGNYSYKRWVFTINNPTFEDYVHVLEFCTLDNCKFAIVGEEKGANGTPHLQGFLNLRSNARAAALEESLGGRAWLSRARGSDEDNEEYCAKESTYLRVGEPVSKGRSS
Protocol: (§1)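 A pool of 90-nt single-stranded DNAs with seven random bases just before the constant AC of the nick site (name = the seven bases) was cut by 3 µM recombinant His6-SUMO-tagged Rep nickase domain (300 nM DNA, 50 mM HEPES pH 8.0, 50 mM NaCl, 1 mM MnCl2, 1 h, 37 °C, three replicates). Uncut DNA was amplified and sequenced.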

[2] = test system: T2, Rep nickase domain of banana bunchy top virus
T2 sequence (residues 1-94, tag not shown): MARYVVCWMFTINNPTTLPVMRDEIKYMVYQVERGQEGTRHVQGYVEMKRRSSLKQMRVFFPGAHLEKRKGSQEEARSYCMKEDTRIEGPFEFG
Protocol: as §1

[3] = test system: T3, Rep nickase domain of cabbage leaf curl virus
T3 sequence (residues 1-116, tag not shown): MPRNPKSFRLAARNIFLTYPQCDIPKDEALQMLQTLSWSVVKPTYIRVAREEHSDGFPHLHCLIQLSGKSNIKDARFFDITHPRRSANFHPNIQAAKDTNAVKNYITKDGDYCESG
Protocol: as §1

[4] = test system: T4, Rep nickase domain of chickpea chlorotic dwarf virus
T4 sequence (residues 1-124, tag not shown): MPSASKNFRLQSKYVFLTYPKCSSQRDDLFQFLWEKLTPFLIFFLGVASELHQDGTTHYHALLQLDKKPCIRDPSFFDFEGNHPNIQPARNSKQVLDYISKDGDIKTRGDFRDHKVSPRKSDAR
Protocol: as §1

[5] = test system: T5, Rep nickase domain of faba bean necrotic yellows virus
T5 sequence (residues 1-98, tag not shown): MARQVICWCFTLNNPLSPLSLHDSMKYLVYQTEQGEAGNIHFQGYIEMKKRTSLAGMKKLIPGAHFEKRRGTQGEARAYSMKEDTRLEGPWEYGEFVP
Protocol: as §1

[6] = test system: T6, Rep nickase domain of maize striate mosaic virus
T6 sequence (residues 1-117, tag not shown): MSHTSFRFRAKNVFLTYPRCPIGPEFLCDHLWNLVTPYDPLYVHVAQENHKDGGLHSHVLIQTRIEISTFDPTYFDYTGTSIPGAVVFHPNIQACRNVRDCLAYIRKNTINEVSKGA
Protocol: as §1

[7] = test system: T7, Rep nickase domain of porcine circovirus 2
T7 sequence (residues 2-116, tag not shown): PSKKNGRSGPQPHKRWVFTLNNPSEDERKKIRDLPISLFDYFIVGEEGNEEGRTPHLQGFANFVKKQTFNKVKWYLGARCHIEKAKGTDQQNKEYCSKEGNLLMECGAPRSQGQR
Protocol: as §1

[8] = test system: T8, Rep nickase domain of tomato golden mosaic virus
T8 sequence (residues 1-124, tag not shown): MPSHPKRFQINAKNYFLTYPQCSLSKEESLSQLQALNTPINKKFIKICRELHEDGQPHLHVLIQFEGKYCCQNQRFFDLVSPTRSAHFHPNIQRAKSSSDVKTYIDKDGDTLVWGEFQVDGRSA
Protocol: as §1

[9] = test system: T9, Rep nickase domain of tomato yellow leaf curl virus
T9 sequence (residues 1-136, tag not shown): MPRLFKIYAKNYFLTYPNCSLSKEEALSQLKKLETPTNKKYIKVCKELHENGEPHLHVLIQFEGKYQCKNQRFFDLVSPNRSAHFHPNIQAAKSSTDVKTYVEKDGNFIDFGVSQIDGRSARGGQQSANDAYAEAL
Protocol: as §1

[10] = test system: T10, Rep nickase domain of wheat dwarf virus
T10 sequence (residues 1-137, tag not shown): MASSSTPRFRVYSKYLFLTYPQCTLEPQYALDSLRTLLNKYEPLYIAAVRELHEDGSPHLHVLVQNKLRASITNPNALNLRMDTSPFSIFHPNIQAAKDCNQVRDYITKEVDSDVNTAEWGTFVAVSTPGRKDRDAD
Protocol: as §1

Row | Sequence | uncleaved DNA left (log2) [1] | uncleaved DNA left (log2) [2] | uncleaved DNA left (log2) [3] | uncleaved DNA left (log2) [4] | uncleaved DNA left (log2) [5] | uncleaved DNA left (log2) [6] | uncleaved DNA left (log2) [7] | uncleaved DNA left (log2) [8] | uncleaved DNA left (log2) [9] | uncleaved DNA left (log2) [10]
1 | TGATCCG | 0.0165 | -0.0989 | -0.873 | -0.275 | -0.0328 | -1.08 | 0.0661 | -0.098 | -0.0864 | -0.165
2 | TAACCAG | -0.125 | -0.0145 | -0.773 | -1.43 | -0.0818 | -1.27 | -0.579 | 0.0192 | 0.00856 | -0.00447
3 | GTGAGAG | 0.0718 | 0.166 | 0.209 | 0.66 | 0.0163 | 0.0214 | 0.142 | 0.0554 | 0.109 | 0.0945
4 | GCAGATT | 0.0707 | -0.222 | -0.0518 | -1.47 | -0.0117 | 0.12 | -0.357 | -0.138 | -0.14 | -0.221
5 | GTAGGTT | 0.14 | 0.0732 | 0.287 | 0.685 | 0.0299 | 1.75 | 0.0207 | 0.0979 | -0.116 | -0.0683
6 | CACGAAA | -0.00774 | 0.0881 | 0.0145 | -0.456 | 0.173 | -0.808 | -0.0665 | 0.0188 | 0.026 | 0.093
7 | AAACCCG | -0.0129 | 0.0424 | -0.851 | -0.507 | -0.0636 | -0.826 | -0.857 | 0.0123 | -0.00607 | 0.0293
8 | TGGGGGA | 0.222 | 0.0573 | 0.751 | 1.35 | 0.0335 | 1.84 | 0.186 | 0.162 | 0.0196 | 0.0715
9 | TCTTCAA | 0.0698 | 0.0341 | 0.111 | -0.0426 | -0.0185 | -0.217 | 0.0514 | -0.00947 | 0.0858 | 0.0566
10 | CTCAGGT | 0.173 | -0.0126 | 0.349 | 1.26 | 0.213 | 1.8 | 0.321 | 0.0801 | -0.145 | 0.0497
11 | AAATGTC | 0.0361 | -0.102 | -3.18 | -2.56 | 0.0436 | -2 | -0.259 | -0.537 | -0.169 | -0.653
12 | TGAGATC | 0.0348 | -0.0966 | 0.319 | 0.502 | 0.097 | 0.509 | 0.19 | 0.00827 | -0.0154 | 0.0482
13 | TGTACCC | -0.0462 | 0.032 | 0.289 | 0.238 | 0.0521 | 1 | -0.361 | -0.0348 | 0.147 | 0.202
14 | TTGCTAT | -0.197 | -0.175 | -0.522 | -0.917 | -0.127 | -1.12 | -0.136 | -0.204 | -0.0446 | -0.175
15 | TGTGCGG | -0.0638 | -0.0564 | 0.296 | 0.764 | -0.0366 | 1.02 | -0.0227 | -0.0808 | -0.151 | -0.0175
16 | CTGGGGC | 0.0331 | -0.0343 | 0.639 | 1.18 | 0.0268 | 1.45 | 0.0549 | -0.0611 | -0.103 | -0.0234
17 | AATCAGA | 0.0866 | 0.138 | -0.177 | -0.374 | 0.108 | -0.953 | 0.15 | 0.197 | 0.143 | 0.0451
18 | CCCAACA | -0.135 | -0.0483 | -0.247 | -2.3 | -0.124 | -0.713 | -0.162 | -0.065 | -0.0965 | -0.161
19 | TGTAGTG | -0.0673 | -0.0719 | -0.584 | -0.813 | -0.113 | -1.06 | 0.0155 | -0.117 | -0.171 | -0.205
20 | CCGGTGT | 0.00613 | 0.0714 | 0.0805 | 0.088 | 0.00542 | 0.254 | 0.165 | -0.0662 | -0.154 | -0.138
21 | CGTAAAG | 0.0554 | -0.0518 | -0.622 | -0.415 | -0.0296 | -1.1 | 0.118 | -0.123 | -0.0399 | -0.111
22 | CTTGCCA | -0.0208 | 0.0542 | -0.307 | -0.904 | 0.0305 | -1.01 | 0.0897 | -0.0618 | 0.122 | 0.00209
23 | TCGCACG | -0.0633 | -0.0297 | -0.722 | -0.79 | -0.11 | -1.21 | 0.0596 | -0.211 | -0.155 | -0.291
24 | GTCCTGC | 0.0421 | 0.0904 | 0.288 | 0.711 | -0.113 | 1.24 | 0.0741 | 0.00147 | 0.0196 | 0.075
25 | TGTTGCC | -0.154 | -0.0915 | -0.55 | -0.581 | -0.0201 | -0.992 | -0.0815 | -0.182 | -0.0531 | -0.226
26 | TCTGGAA | 0.0296 | 0.0135 | 0.166 | 0.718 | 0.0984 | 0.809 | -0.00688 | 0.0141 | -0.11 | 0.0445
27 | AGCAAGG | 0.15 | 0.185 | 0.102 | 0.747 | 0.0729 | 1.56 | 0.249 | 0.229 | 0.0928 | 0.253
28 | CCCTTCA | -0.0832 | 0.0204 | 0.216 | -0.609 | -0.0879 | -0.14 | -0.116 | 0.00402 | 0.038 | -0.00495
29 | ATATTAG | 0.0424 | -0.0131 | -0.732 | -0.207 | 0.0911 | -1.16 | 0.139 | 0.0792 | 0.0391 | -0.00241
30 | ACCTTCG | 0.0697 | 0.103 | -0.365 | 1.11 | 0.0579 | 0.261 | 0.21 | -0.0487 | 0.281 | 0.154
